# This is one part of the list.
# Columns and labels:
# Assay in all cases: glycan array binding signal (z-score within array); higher = stronger binding
# Conditions in all cases: glycan notation: IUPAC condensed, linker removed
# [1] = biological target: Neu5Ac(a2-3)Gal(b1-4)GlcNAc(b1-6)GalNAc
# In short: (§1)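 Negative Z-scores can be read as non-binding. The Z-score is calculated within each array and then averaged across arrays of one protein sequence at different concentrations or buffers and across linkers. Arrays, 3228 in all, were curated from the Consortium for Functional Glycomics database and kept only where the protein sequence was available.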
# [2] = biological target: Neu5Ac(a2-3)Gal(b1-4)GlcNAc(b1-6)[Gal(b1-3)]GalNAc
# In short: as §1
# [3] = biological target: Neu5Ac(a2-3)Gal(b1-4)GlcNAc(b1-6)[Neu5Ac(a2-3)Gal(b1-3)]GalNAc
# In short: as §1
# [4] = biological target: Neu5Ac(a2-3)Gal(b1-4)GlcNAc6S
# In short: as §1
# [5] = biological target: Neu5Ac(a2-3)Gal(b1-4)[Fuc(a1-3)]GlcNAc
# In short: as §1
# [6] = biological target: Neu5Ac(a2-3)Gal(b1-4)[Fuc(a1-3)]GlcNAc(b1-2)Man
# In short: as §1
# [7] = biological target: Neu5Ac(a2-3)Gal(b1-4)[Fuc(a1-3)]GlcNAc(b1-3)Gal
# In short: as §1
# [8] = biological target: Neu5Ac(a2-3)Gal(b1-4)[Fuc(a1-3)]GlcNAc(b1-3)Gal(b1-4)GlcNAc
# In short: as §1
# [9] = biological target: Neu5Ac(a2-3)Gal(b1-4)[Fuc(a1-3)]GlcNAc(b1-3)Gal(b1-4)[Fuc(a1-3)]GlcNAc(b1-3)Gal(b1-4)[Fuc(a1-3)]GlcNAc
# In short: as §1
# [10] = biological target: Neu5Ac(a2-3)Gal(b1-4)[Fuc(a1-3)]GlcNAc(b1-3)GalNAc
# In short: as §1
# [11] = biological target: Neu5Ac(a2-3)Gal(b1-4)[Fuc(a1-3)]GlcNAc(b1-6)[Gal(b1-3)]GalNAc
# In short: as §1
# [12] = biological target: Neu5Ac(a2-3)Gal(b1-4)[Fuc(a1-3)]GlcNAc(b1-6)[Neu5Ac(a2-3)Gal(b1-3)]GalNAc
# In short: as §1
# [13] = biological target: Neu5Ac(a2-3)Gal(b1-4)[Fuc(a1-3)]GlcNAc6S
# In short: as §1
# [14] = biological target: Neu5Ac(a2-3)Gal6S(b1-4)GlcNAc
# In short: as §1
# [15] = biological target: Neu5Ac(a2-3)Gal6S(b1-4)[Fuc(a1-3)]GlcNAc
# In short: as §1
# [16] = biological target: Neu5Ac(a2-3)GalNAc
# In short: as §1
# [17] = biological target: Neu5Ac(a2-3)GalNAc(b1-4)GlcNAc
# In short: as §1
# [18] = biological target: Neu5Ac(a2-3)[GalNAc(b1-4)]Gal(b1-4)Glc
# In short: as §1
# [19] = biological target: Neu5Ac(a2-3)[GalNAc(b1-4)]Gal(b1-4)GlcNAc
# In short: as §1
# [20] = biological target: Neu5Ac(a2-3)[GalNAc(b1-4)]Gal(b1-4)GlcNAc(b1-3)GalNAc
# In short: as §1
# [21] = biological target: Neu5Ac(a2-3)[Neu5Ac(a2-6)]GalNAc
# In short: as §1
# [22] = biological target: Neu5Ac(a2-6)Gal
# In short: as §1
# [23] = biological target: Neu5Ac(a2-6)Gal(b1-3)GlcNAc(b1-3)[Gal(b1-4)GlcNAc(b1-6)]Gal(b1-4)Glc
# In short: as §1
# [24] = biological target: Neu5Ac(a2-6)Gal(b1-4)Glc
# In short: as §1
# [25] = biological target: Neu5Ac(a2-6)Gal(b1-4)GlcNAc
# In short: as §1
# [26] = biological target: Neu5Ac(a2-6)Gal(b1-4)GlcNAc(b1-2)Man
# In short: as §1
# [27] = biological target: Neu5Ac(a2-6)Gal(b1-4)GlcNAc(b1-2)Man(a1-3)Man(b1-4)GlcNAc(b1-4)GlcNAc
# In short: as §1
# [28] = biological target: Neu5Ac(a2-6)Gal(b1-4)GlcNAc(b1-2)Man(a1-3)[Gal(b1-4)GlcNAc(b1-2)Man(a1-6)]Man(b1-4)GlcNAc(b1-4)GlcNAc
# In short: as §1
# [29] = biological target: Neu5Ac(a2-6)Gal(b1-4)GlcNAc(b1-2)Man(a1-3)[GlcNAc(b1-2)Man(a1-6)]Man(b1-4)GlcNAc(b1-4)GlcNAc
# In short: as §1
# [30] = biological target: Neu5Ac(a2-6)Gal(b1-4)GlcNAc(b1-2)Man(a1-3)[GlcNAc(b1-4)][Neu5Ac(a2-6)Gal(b1-4)GlcNAc(b1-2)Man(a1-6)]Man(b1-4)GlcNAc(b1-4)GlcNAc
# In short: as §1
binder,measurement,setting,value
BT3172pd (Bacteroides thetaiotaomicron) (protein) MLPLRAEHYYYKQISLKEGLPSNVRCILRDEQGFIWIGTKAGLGKFDGHQLKRYKHQANDPHSLLHNLIYQIAEDKQHNIWILTEKGIARYQQQSNNFTFPTDEEGNYITAYSFCLVPDGILFGGKDRIYKYSYKDSSLRLLQYFNANSFKITALSVWDSKTLLCCSRWTGLYLVDLQTGEHRRPPFDCGPEITSMITDSKNRIWIAPYSGGLRCYSRDGKLSASYTTHNSSLSNDIVLSLAEREEQLWIGTDGGGINILHPETGEISQLEYIPGRENYSLPANSILCLHNDYNNNVWAGSTCNGLISIREVSMKTYTDVVPGNDRGLSNGTVRSLYRQSPDSIWIGTDGGGINLFSPHTEKFTHYSSTWGDKVAFISGFTPGKLLISLFSKGVFVFNPATGEKQPFTIIDKETTTRLCNRGKSVNLYQNTPNTVLFLGDHIYQYHLKEKKFSTITEEEGKDIVGTLVPFDHQENLTYINDIKHIYELDDQTSRLKTVFECYTDTVISSVSHDEQGHFWIGSNFGLIHYDPVLKSRTLVPTNLFTEINMVLCDQKGKVWIGVDNMLFAYFIKEQKFVLFGESNGAIQNEYLPNARLVNEQGDAYIGGVKGMLRIDGQLLLNTSEMPELQLLDITINGESANHEWYNHPAKISVPWNSNISIRIMSREEDIFRQKIYRYQIEGLNNEYTESYNPELVIRSLLPGSYRIMASCTAKDGSWIPDQQVLELTVLPPWYRTHHHHHH,glycan array binding signal (z-score),[1],-1.25
same,glycan array binding signal (z-score),[2],-0.43
same,glycan array binding signal (z-score),[3],-0.567
same,glycan array binding signal (z-score),[4],2.43
same,glycan array binding signal (z-score),[5],-0.087
same,glycan array binding signal (z-score),[6],-0.094
same,glycan array binding signal (z-score),[7],-0.647
same,glycan array binding signal (z-score),[8],-0.529
same,glycan array binding signal (z-score),[9],-0.582
same,glycan array binding signal (z-score),[10],-0.303
same,glycan array binding signal (z-score),[11],0.792
same,glycan array binding signal (z-score),[12],0.699
same,glycan array binding signal (z-score),[13],0.417
same,glycan array binding signal (z-score),[14],0.228
same,glycan array binding signal (z-score),[15],0.575
same,glycan array binding signal (z-score),[16],-0.281
same,glycan array binding signal (z-score),[17],-0.423
same,glycan array binding signal (z-score),[18],-0.631
same,glycan array binding signal (z-score),[19],-0.192
same,glycan array binding signal (z-score),[20],-0.508
same,glycan array binding signal (z-score),[21],-0.249
same,glycan array binding signal (z-score),[22],4.96
same,glycan array binding signal (z-score),[23],-0.278
same,glycan array binding signal (z-score),[24],0.862
same,glycan array binding signal (z-score),[25],-0.069
same,glycan array binding signal (z-score),[26],0.901
same,glycan array binding signal (z-score),[27],0.866
same,glycan array binding signal (z-score),[28],-0.333
same,glycan array binding signal (z-score),[29],-0.771
same,glycan array binding signal (z-score),[30],-0.461
